# Reference: PubChem BioAssay AID686979 (National Center for Advancing Translational Sciences (NCATS), 2013)
# The whole screen tested about 420,000 compounds, of which about 50,000 (12%) were called active. Inconclusive means that the source gave no clear call. Such entries were picked first, then a sample of the others. Calls come from the whole dose curve; as a rule, active = well fitted inhibition curve with a large enough effect; inconclusive = small, poorly fitted or top-dose-only effect; inactive = flat fitted curve, though single readings scatter. Potencies of inconclusive entries are left out as doubtful fits.
# Assay: qHTS for Inhibitors of human tyrosyl-DNA phosphodiesterase 1 (TDP1): qHTS in cells in presence of CPT; note: nearly all actives have a fitted effect of over 55% in size
# Settings: chicken DT40 Tdp1-/-;hTDP1 cells + 20 nM CPT, ATP luminescence, 48 h; activity change, negative = growth inhibition: at 46.2 µM (top of the series) unless noted
# Outline: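 Chicken DT40 Tdp1-/- cells complemented with human TDP1, 400 cells/well, exposed to compounds plus 20 nM camptothecin for at least 48 h at 37 C; viability read as ATP content by CellTiter-Glo luminescence.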
# % is set by controls: 0 for no effect and ±100 for the full control effect; potency is the fitted concentration of half-maximal effect; tags give direction and shape of the fitted curve.
Compound,Potency,"activity change, negative = growth inhibition"
O=C(c1cccs1)N1C[C@@H](n2cc(-c3ccc(F)cc3)nn2)[C@H](O)C[C@@H]1c1ccccc1,active: 14.6 µM,–
CCCc1n(CC(O)COCC2CC=CCC2)c2ccccc2[n+]1C (configuration not stated),active: 8.2 µM,–
CCc1ccccc1NC(=O)Nc1cc(C(=O)NCc2ccccc2OC)ccc1N1CCCC1,active: 14.6 µM,–
Cc1ccc(-n2nc(C)c(C(=O)Nc3cccc(C(=O)NC4CC4)c3)n2)c(C)c1,active: 11.6 µM,–
Cc1ccn2c(=O)c(NC(=O)c3cccc4ccccc34)c(C)nc2c1,–,inactive: -23.8%
O=C(COC(=O)c1ccc(O)cc1)Nc1ccc(Cl)cc1,"inconclusive [inhibitor, single point]",–
COc1ccc(C(=O)Nc2c(Cl)cc(Cl)cc2C(=O)N2CCC(C)CC2)cc1,–,inactive: -13.5%
C[C@H](CO)N1C[C@H](C)[C@@H](CN(C)C(=O)Nc2ccc(C(F)(F)F)cc2)Oc2c(NC(=O)C3CCCCC3)cccc2C1=O,"inconclusive [inhibitor, single point]",–
COc1ccccc1CN1CCN(Cc2nc(-c3ccccc3)no2)CC1,–,inactive: -10.5%
Cc1nn(-c2ccc(Cl)cc2Cl)c(C)c1C(=O)O,–,inactive: 0.0098%
O=C(Nc1ccccc1N1CCN(C(=O)c2ccc(Cl)cc2)CC1)c1cc(Br)ccc1Cl,"inconclusive [inhibitor, single point]",–
C[C@@H]1[C@H]2CCCC[C@H]2CN(C(=O)OC(C)(C)C)[C@@H]1c1cn(Cc2ccccc2)c2ccc(F)cc12,"inconclusive [inhibitor, single point]",–
Cn1c(CN2CCN(C(=O)c3ccc(F)cc3)CC2)nc2cc([N+](=O)[O-])ccc21,"inconclusive [inhibitor, partial curve]",–
COc1ccc2nc3ccccc3nc2c1N,"inconclusive [inhibitor, single point]",–
O=C(O)/C=C/C(=O)Nc1ccc(Oc2ncnc3cc(Cl)ccc23)nc1,"inconclusive [inhibitor, single point]",–
COc1ccccc1N=Nc1nc(-c2ccccc2)c(-c2ccccc2)[nH]1,active: 18.4 µM,–
Cc1cc(NC(=O)CSc2nc3ccccc3c(=O)n2Cc2ccccc2)no1,–,inactive: -2.56%
Cn1c(=O)c(-c2cc(Br)ccc2N)nc2ccccc21,–,inactive: -23.4%
O=C(CCCN1CCC(c2ccccc2)C1)c1ccc2c(c1)OCCO2 (configuration not stated),"inconclusive [inhibitor, partial curve]",–
Cc1ccc(C)n1NC(=O)c1ccccc1O,"inconclusive [inhibitor, partial curve]",–
CCOc1ccc2[nH]c(SCC(=O)OC)c([N+](=O)[O-])c2c1,active: 6.51 µM,–
CCOc1ccc(C2=Nn3c(nnc3-c3ccccc3OC)SC2)cc1,active: 0.206 µM,–
Cc1nc2ccc(Cl)cc2c(-c2ccccc2Cl)c1CC(=O)O,–,inactive: 5.23%
COc1cccc(-c2nc(SCC(=O)NCC3CCCO3)c(-c3ccc(Cl)cc3)[nH]2)c1 (configuration not stated),"inconclusive [inhibitor, single point]",–

Compound,Potency,"activity change, negative = growth inhibition"
CCOC(=O)C1(Cc2ccccc2C)CCCN(Cc2cc(OC)c(O)c(OC)c2)C1 (configuration not stated),"inconclusive [inhibitor, partial curve]",–
O=C(N/N=C/c1ccc(OC(F)F)cc1OC(F)F)NC1CCCCC1,"inconclusive [inhibitor, single point]",–
Cc1ccccc1Nc1c(-c2ccncc2)nc2ccc(Br)cn12,active: 23.1 µM,–
CC(C)C(=O)N1CCN(c2cc(N3CCN(C)CC3)c(F)cc2[N+](=O)[O-])CC1,–,inactive: 1.25%
CCOc1ccc(-n2c(C)cc(/C=N/Nc3nc(C)cc(=O)[nH]3)c2C)cc1,active: 16.4 µM,–
CN(c1cccc(F)c1)c1cc2c(c3c1ccn3C)C1CCC2O1 (configuration not stated),active: 16.4 µM,–
Cc1ccc(-c2nnc3ccc(SCC(N)=O)nn23)cc1,"inconclusive [inhibitor, full curve, poor fit]",–
CC(C)(C)c1ccc(C(=O)NNC(=O)c2ccc(Cl)cc2)cc1,–,inactive: 0.25%
O=C(Nc1ccc(F)cc1F)NC1CCN(Cc2c(F)cccc2Cl)CC1,"inconclusive [inhibitor, partial curve]",–
C#CCN(C[C@@H]1[C@@H](OC(=O)NC2CC2)[C@@H](OC(=O)NC2CC2)Cn2c(=O)n(CCCCCC)c(=O)n21)S(=O)(=O)c1ccc(C)cc1,"inconclusive [inhibitor, single point]",–
COc1cc(C(=O)N/C(=C/c2ccc(F)cc2)C(=O)NC(C(=O)O)c2ccccc2)cc(OC)c1OC (configuration not stated),–,inactive: -13.3%
Cc1c(C(=O)Nc2c(F)cccc2F)sc2ncn(CC(=O)N3CCCCC3)c(=O)c12,–,inactive: -8.79%
COc1ccc(N2CCN(C(=O)Cn3c(-c4cccs4)cc4ccccc43)CC2)cc1,"inconclusive [inhibitor, single point]",–
Clc1cccc(-n2ncc3c(Nc4ccc5c(c4)OCCO5)ncnc32)c1,"inconclusive [inhibitor, single point]",–
Cc1cccc(C)c1N(CC(=O)NCc1ccco1)C(=O)CNS(=O)(=O)c1ccc(F)cc1,–,inactive: -26.8%
O=C(O)c1cc(S(=O)(=O)NCCCN2CCCC2=O)ccc1Cl,–,inactive: -2.06%
COc1ccccc1C(=O)C1CCCN(C(=O)CSc2ccccn2)C1 (configuration not stated),"inconclusive [inhibitor, partial curve]",–
Cc1ccc(C)c(Cn2c(=O)n(-c3ccc(F)cc3)c(=O)c3sc4ccccc4c32)c1,–,inconclusive: -14.4% [inhibitor]
COc1ccc(C(=O)Nc2cccc(-c3ccc(N4CCOCC4)nn3)c2)cc1OC,active: 18.4 µM,–
CC=Cc1cc(OC)c2c(c1)C(C)C(c1ccc(O)c(OC)c1)O2 (configuration not stated),"inconclusive [inhibitor, single point]",–
CN1C(C(=O)NCc2ccco2)=CC(c2ccc(F)cc2)=NS1(=O)=O,–,inactive: 4.76%
CC(=O)N1CCc2cc(S(=O)(=O)NC(Cc3ccccc3)C(=O)Nc3ccc(C)cc3C)ccc21 (configuration not stated),"inconclusive [inhibitor, single point]",–
Cc1nc2cc(OCc3cc(C(=O)NC(C)c4cn(C)nc4C)no3)ccc2s1 (configuration not stated),"inconclusive [inhibitor, single point]",–
Cc1noc(NS(=O)(=O)c2ccc(NC(=O)Nc3ccc(Cl)c(Cl)c3)cc2)c1C,–,inactive: -4.65%

Compound,Potency,"activity change, negative = growth inhibition"
Cc1ccc(C(=O)Nc2ccc3oc(-c4cc(Br)ccc4Cl)nc3c2)cc1,active: 23.1 µM,–
CCC(=O)N1CCCc2cc(S(=O)(=O)N3CCC(C(=O)Nc4cccc(Cl)c4)CC3)ccc21,"inconclusive [inhibitor, single point]",–
O=C(Cc1ccc2c(c1)OCCO2)Nc1ccc(Cl)c(S(=O)(=O)N2CCOCC2)c1,–,inconclusive: -30.6% [inhibitor]
COc1ccccc1-c1ccc2ncnc(NCc3cnc(C)cn3)c2c1,"inconclusive [inhibitor, single point]",–
COc1cc(OC)c(N(C)C(=O)CSc2c3c(nc4ccc(Cl)cc24)CCCC3)cc1Cl,active: 18.4 µM,–
COc1ccccc1C(=O)C1CCCN(C(=O)c2cccnc2SC)C1 (configuration not stated),"inconclusive [inhibitor, single point]",–
CC(C)(C)c1ccc(/C=C/C(=O)N2CCOCC2)cc1,"inconclusive [inhibitor, single point]",–
CC(Sc1nnc(-c2ccncc2)n1-c1ccc(F)cc1)C(=O)NC1CC1 (configuration not stated),–,inactive: -3.25%
Nc1ccc2nc(SCC(=O)N3CCOCC3)sc2c1,–,inactive: 3.3%
CCc1ccc(NC(=O)CC2C(=O)N(c3ccc(OC)cc3)C(=O)N2Cc2cccs2)cc1 (configuration not stated),"inconclusive [inhibitor, single point]",–
O=C(COC(=O)CC1CC2CCC1C2)NCc1ccccc1 (configuration not stated),–,inactive: -0.831%
COc1cc2c(cc1OC)C(C1C(=O)CC(C)CC1=O)N(C(=O)CCl)CC2 (configuration not stated),–,inactive: 4.27%
COc1ccc(C(=O)Nc2ccc3oc(-c4cc(Cl)ccc4Cl)nc3c2)cc1Br,–,inactive: -2.59%
Oc1c(/C=N/Nc2cccc3cccnc23)ccc2ccccc12,"inconclusive [inhibitor, single point]",–
O=c1cc2nc(-c3ccccc3)nc(SCCOc3ccc(Cl)cc3)n2[nH]1,"inconclusive [inhibitor, single point]",–
CCCCCCC(O)(c1ccc(OC)cc1)C(CN1CCOCC1)c1ccccc1 (configuration not stated),"inconclusive [inhibitor, partial curve, poor fit]",–
O=C(CCn1c(=O)[nH]c2ccccc21)NCC1Cc2cc(Cl)cc(-c3ccncc3)c2O1 (configuration not stated),–,inactive: 4.16%
O=C(CCC(=O)N1CCN(c2ccc(F)cc2)CC1)c1ccc(Cl)cc1,"inconclusive [inhibitor, single point]",–
C=CCNC(=S)NNC(=O)COc1ccc(Br)cc1,–,inactive: 1.56%
CCOC(=O)C1CCN(CC(O)COc2ccc(C(C)(C)CC)cc2)CC1 (configuration not stated),active: 16.4 µM,–
CCCCN(Cc1ccco1)S(=O)(=O)c1ccc(-c2ccc(=O)[nH]n2)s1,"inconclusive [inhibitor, single point]",–
CCc1cccc2c(-c3csc(=NC)n3C)c[nH]c12,"inconclusive [inhibitor, single point]",–
COc1ccc(C2CC(c3cccc(C)c3)n3ncnc3N2)cc1 (configuration not stated),"inconclusive [inhibitor, partial curve]",–
O=C1c2ccccc2C(Nc2ccc(S(=O)(=O)N3CCCCC3)cc2)N1Cc1ccco1 (configuration not stated),"inconclusive [inhibitor, partial curve, poor fit]",–
